Measured values taken from PubChem BioAssay AID1508624 (National Center for Advancing Translational Sciences (NCATS), 2021).
Out of some 48,000 compounds screened, about 120 (0.25%) were called active. Roughly 4% stayed inconclusive and do not appear here. Calls come from the whole dose curve; as a rule, active = well fitted activation curve with a large enough effect; inconclusive = small, poorly fitted or top-dose-only effect, or another doubt; inactive = no such curve, though single readings can be large or run the other way. The list shows a part of the results, in another mix than the full data. The source gives no active or inactive call for entries shown without one.

Assay: Primary qHTS for Identification of Small Molecule Activators of Huntingtin-Antisense Promoter Activity; note: nearly all actives have a fitted effect of over 55% in size
Settings: HEK293 HTT-AS promoter firefly luciferase reporter, 24 h; activity change, positive = activation: at 57.5 µM (top of the series), percent change from vehicle, -100% = no light
Procedure, shortened: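 Quantitative HTS used concentration series of up to 57.5 uM final on HEK293 luciferase reporter cells, 24 h at 37 degrees C. Readout was Dual-Glo firefly luminescence.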
Potency is the fitted concentration of half-maximal effect.

SMILES | activity change, positive = activation | Potency
O=C(CSc1nc(-c2cccc(Cl)c2)nc2cc(=O)[nH]n12)Nc1ccccc1 | -13.8% | 
COc1cccc(NC(=O)CSc2nnc(COc3ccc(Cl)cc3)o2)c1 | -5.22% | 
CCOc1ccccc1NC(=O)c1sc2nc(C)cc(C)c2c1N | inactive: 3.7% | 
O=S(=O)(Nc1cccc(-c2ccc(N3CCCCCC3)nn2)c1)c1ccc(F)cc1 | 42.7% | 
Cc1cc(C)c(-c2n[nH]c3c2C(c2ccccc2F)N(Cc2ccco2)C3=O)c(O)c1 (stereo not given) | inactive: -32.9% | 
CCOC(=O)C1CCN(C(=O)Cn2nc(CC)n3c(cc4sccc43)c2=O)CC1 | inactive: -78.2% | 
Cc1nn2c(=O)cc(COC(=O)c3cccc(NC(=O)COc4ccccc4C)c3)nc2s1 | inactive: -89.6% | 
CCN(CC)C(=O)c1ccc2c(c1)N(Cc1ccc(C(F)(F)F)cc1)C(=O)c1ccccc1S2 | inactive: -21% | 
COc1ccc(-c2cc(C(=O)Nc3sc4c(c3C(N)=O)CCCC4)no2)cc1 | 17.5% | 
COc1ccc(Cl)cc1NC(=O)c1cc(-c2ccc3c(c2)OCO3)on1 | 5.23% | 
Cc1oc2ccc(O)c(CN3CCOCC3)c2c1C(=O)Nc1cccc(C(F)(F)F)c1 | -28.2% | 
Cc1[nH]c(C=C2C(=O)Nc3ccc(S(=O)(=O)Cc4c(Cl)cccc4Cl)cc32)c(C)c1C(=O)N1CCC[C@H]1CN1CCCC1 | inactive: -4.46% | 
O=C(Nc1ccccc1C(F)(F)F)C1CCN(S(=O)(=O)Cc2ccccc2)CC1 | 2.69% | 
Cc1nc(NC(=O)N2CCC[C@@H]2C(N)=O)sc1-c1csc(C(C)(C)C)n1 | inactive: 10.2% | 
COc1cc(NC(=O)CC2C(=O)N(c3cccc(C)c3)C(=O)N2Cc2ccco2)cc(OC)c1 (stereo not given) | -21.1% | 
COC(=O)CN1C(=O)CSc2ccc(S(=O)(=O)Nc3ccc(Cl)cc3C)cc21 | -8.19% | 
Cc1ccc2ccc(C(Nc3ccccn3)c3ccccc3)c(O)c2n1 (stereo not given) | -7.27% | 
Cc1cccc(CNC(=O)c2cnc3sc(N4CCCCC4)nn3c2=O)c1 | -2.95% | 
Cc1nc2c(-c3ccccc3)c(C)nn2c(C)c1CCC(=O)NCc1cccc(Cl)c1 | inactive: -21.7% | 
Cc1cc(C)cc(Oc2nc3c(C)cccn3c(=O)c2/C=C(\C#N)c2nc3ccccc3[nH]2)c1 | inactive: -3.97% | 
COc1ccc(NC(=O)c2oc3ccccc3c2NC(=O)c2cccc(F)c2)c(OC)c1 | inactive: -12.3% | 
C=CCc1ccccc1OCCSc1nc(-c2ccc(C(C)(C)C)cc2)nc2cc(=O)[nH]n12 | 5.6% | 
CCc1nn(-c2ccccc2)c2nc(-c3cccc(OC)c3)c3cc(OC)c(OC)cc3c12 | -0.363% | 
CCCc1cc(=O)[nH]c(Nc2cccc(Cl)c2Cl)n1 | -10.8% | 

SMILES | activity change, positive = activation | Potency
COc1ccc2c(C)c(CCC(=O)NCCc3ccccc3OC)c(=O)oc2c1 | -9.52% | 
CCOc1cc(C2C(C(=O)OC)=C(C)NC3=C2C(=O)c2ccccc23)cc(Cl)c1O (stereo not given) | -9.14% | 
COc1ccc(NC(=O)CN(Cc2ccccc2)S(=O)(=O)c2ccc(C)cc2)cc1Cl | -40.4% | 
COc1ccc(NC(=O)CC2C(=O)N(c3ccc(F)cc3)C(=O)N2Cc2cccnc2)cc1 (stereo not given) | 5.6% | 
COc1ccc(CCN2C(=O)CN(C3CCCCCC3)C(=O)C2c2ccc(OC(C)C)c(OC)c2)cc1OC (stereo not given) | -4.99% | 
COc1cccc(-c2cn3ncsc3n2)c1 |  | active: 2.51 µM
CCCOc1ccc(C2C(=O)N(C3CCC(C)CC3)CC(=O)N2Cc2cccc(OC)c2)cc1OC (stereo not given) | -2.32% | 
Cc1cc(CN2CCN(c3c(Br)cnc4nc(-c5ccc(N6CCN(C)CC6)cc5)[nH]c34)CC2)no1 | inactive: -19.2% | 
COCCCNC(=O)c1ccc(-c2nc(CS(=O)(=O)c3ccc(C)cc3)c(C)o2)cc1 | -29.1% | 
COc1ccc(NC(=O)CCc2c(C)nn(-c3ccc(N4CCCCC4)nn3)c2C)cc1Cl | 27.8% | 
Cc1ccc(CNC(=O)c2cc3c(=O)n(Cc4ccco4)ccc3nc2C)cc1 | -26.5% | 
CCOc1ccc(NC(=O)CCc2c(C)nn(-c3ccc(N4CCCC4)nn3)c2C)cc1 | 14.8% | 
CC(=O)c1ccc(N2CCN(S(=O)(=O)c3ccc(-c4coc(C)n4)cc3)CC2)cc1 | inactive: -29.1% | 
CCc1nn(CC(=O)NCCc2ccc(Cl)cc2)c(=O)c2cc3c(OC)cccc3n12 | -3.05% | 
COc1ccc(-c2cc(C(=O)Nc3ccc4c(c3)OCO4)no2)cc1 | 0.148% | 
COc1ccc(Br)cc1CNC(=O)Cn1nc(C)n2c(cc3cc(F)ccc32)c1=O | 3.24% | 
COc1ccc(-c2cc(C(=O)Nc3cc(C(F)(F)F)ccc3Cl)no2)cc1 | -11.5% | 
CCN(C(=O)c1ccc(C(=O)N(CC)c2ccccc2C)cc1)c1ccccc1C | -22.9% | 
CCOc1ccccc1CNC(=O)c1cnn(-c2ccc(C)cc2)c1-n1cccc1 | -40.9% | 
CCc1ccc(NC(=O)CCc2c(C)nn(-c3ccc(N4CCCC4)nn3)c2C)cc1 | 19.4% | 
COc1ccc(C2C(=O)N(C3CCCCCC3)CC(=O)N2CCc2ccc(Cl)cc2)cc1OC (stereo not given) | -14.7% | 
Cc1ccc(NC2(c3ccccc3)C(=O)c3ccccc3C2=O)cc1F | -8.58% | 
Cc1ccc2c(=O)c(C(=O)c3ccccc3)cn(CC(=O)NCc3ccccc3)c2n1 | inactive: -12% | 
CCOc1ccc(C2C(=O)N(C3CCCCC3)CC(=O)N2Cc2ccc(F)cc2)cc1OC (stereo not given) | -18.5% | 

SMILES | activity change, positive = activation | Potency
COc1cc(C(=O)Nc2ccc3nc4n(c(=O)c3c2)CCCCC4)cc(OC)c1OC | inactive: -11.1% | 
CCOC(=O)c1c(NC(=O)c2cc(CC)on2)sc(C)c1C | 5.77% | 
COc1cc(OC)c(Nc2nc3ccc(C)cc3n3nnnc23)cc1Cl | 5.59% | 
COC(=O)c1cc2oc3ccccc3c2n1Cc1cccc(C)c1 | 3.1% | 
COC(=O)c1cccc(NC(=O)C2CCN(S(=O)(=O)Cc3ccccc3)CC2)c1C | 3.46% | 
Fc1ccccc1C(NCCc1ccc(Cl)cc1)c1nnc(-c2ccccc2)o1 (stereo not given) | -26% | 
OCCN(CCO)c1nc(N2CCCCC2)c2nc(N(CCO)CCO)nc(N3CCCCC3)c2n1 |  | inactive
CN(C)S(=O)(=O)N1CCC(N2CCN(Cc3ccc(F)cc3)C(=O)C2=O)CC1 | 5.88% | 
Nc1nonc1-c1nc2ccccc2n1CC(=O)Nc1ccccc1C(=O)O | -29.7% | 
CC(=O)Nc1ccc(NCc2nnc3n2CCCCC3)cc1 | inactive: -12.5% | 
CCc1ccc(-n2c(CCC(=O)O)ccc2-c2cccs2)cc1 | -7.95% | 
COc1cccc(OCCn2c(-c3ccc(Br)cc3)nc3ccccc3c2=O)c1 | 2.33% | 
COC(=O)c1ccc(NC(=O)CCc2c(C)nn(-c3ccc(N4CCCCC4)nn3)c2C)cc1 | 40.4% | 
Cc1ccc(CSc2nc3cccnc3n2Cc2ccc(C(=O)NC3CCCCC3)cc2)cc1 | inactive: 18.7% | 
Cc1nn(-c2ccc(N3CCCC3)nn2)c(C)c1CCC(=O)N1CCN(c2ccccc2F)CC1 | -14.3% | 
CC1=C(C(=O)OC2CCCC2)C(c2ccccc2C(F)(F)F)CC(=O)N1 (stereo not given) | inactive: -33% | 
CC(C)Oc1ccc(CNC(=O)Cn2nc(N3CCN(c4ccccc4)CC3)ccc2=O)cc1 | inactive: -28.5% | 
Cc1ccc(NS(=O)(=O)c2ccc(-c3cc(C)no3)cc2)c(Br)c1 | -28.6% | 
COc1ccccc1CNC(=O)CCc1c(C)c2ccc(OC)c(C)c2oc1=O | -3.02% | 
COc1ccc(NC(=O)c2c(C(=O)Nc3ccccc3)sc3nc(C)cc(=O)n23)cc1 | -4.77% | 
COc1c(C)cc(S(=O)(=O)Nc2cccc(-c3ccc(N4CCOCC4)nn3)c2)c(C)c1C | 21.4% | 
Cc1cc(O)c2c(C)c(CC(=O)N3CCCCC3)c(=O)oc2c1 | 12.8% | 
CCOc1ccc(C2C(=O)N(C3CCCCC3)CC(=O)N2CCC2=CCCCC2)cc1OC (stereo not given) | -7.57% | 
COc1ccccc1CN1C(=O)C(=O)c2cccc(C)c21 | inactive: -12.2% | 

SMILES | activity change, positive = activation | Potency
CC(=O)Nc1ccc(S(=O)(=O)Nc2cccc(-c3ccc(N4CCCCCC4)nn3)c2)cc1 | 42.6% | 
CC(NC(=O)CSc1nc(-c2cccc(Cl)c2)nc2cc(=O)[nH]n12)c1nc2ccccc2n1C (stereo not given) | -10.4% | 
COc1ccc(-c2nc3ccccc3s2)cc1NC(=O)c1cccc([N+](=O)[O-])c1C |  | active: 2 µM
CCCOc1ccc(NC(=O)CC2C(=O)N(c3ccc(F)cc3)C(=O)N2CC(C)C)cc1 (stereo not given) | -19.1% | 
C=C(C)Cn1c(SCC(=O)Nc2cccc(C)c2)nc2sc3c(c2c1=O)CCCC3 | -1.81% | 
CC(NC(=O)CN1C(=O)COc2ccc(Cl)cc21)c1ccccc1 (stereo not given) | -1.61% | 
Cc1nc2ccn(Cc3cccs3)c(=O)c2cc1C(=O)NCc1ccc(Cl)cc1 | -27.5% | 
CCc1cc(=O)oc2c(C)c3c(cc12)CN(CCc1ccccc1)CO3 | -9.23% | 
CCc1ccc(NC(=O)c2ccc(F)c(S(=O)(=O)N3CCc4ccccc4C3)c2)cc1 | inactive: -19.7% | 
Cc1ccc(NS(=O)(=O)c2ccc(-c3cc(C)no3)cc2)c(C)c1 | -32.8% | 
CCCOc1ccc(NC(=O)CC2C(=O)N(c3ccccc3)C(=O)N2CCC(C)C)cc1 (stereo not given) | -23.8% | 
COc1cccc(CNC(=O)CC(c2ccc(F)cc2)N2Cc3ccccc3C2=O)c1 (stereo not given) | -16.7% | 
Cc1ccc(-c2nnc(Nc3ccc(Br)cc3)c3ccccc23)cc1S(=O)(=O)N1CCCCC1 | -3.11% | 
COc1ccc(-c2cc(C(=O)Nc3c(Cl)cccc3Cl)no2)cc1OC | 17.7% | 
Cc1ccc(-c2cc(C(=O)Nc3c(C(=O)c4ccccc4)oc4ccccc34)no2)cc1F | 0.877% | 
Cc1ccc(CNS(=O)(=O)c2c(C)nc3scc(C)n3c2=O)cc1 | 3.49% | 
CCOc1ccc(C(=O)Nc2cccc(-c3nc4cc(Cl)cc(Cl)c4o3)c2)cc1 | 1.45% | 
Cc1ccccc1-c1nc2cc(NC(=O)Cc3ccc(Cl)cc3)ccc2o1 | inactive: -7.09% | 
CC(=O)Nc1ccc(S(=O)(=O)N2CCC(n3c(C(F)(F)F)nc4cccnc43)CC2)cc1 | -5.31% | 
COc1ccc(CNC(=O)c2cc(-c3ccc(OC)cc3)on2)cc1 | 8.88% | 
Cc1ccc(C)c(OCCn2c(-c3ccc(Cl)cc3)nc3ccccc3c2=O)c1C | -4.81% | 
Cc1cc(F)ccc1S(=O)(=O)NCC(c1ccco1)S(=O)(=O)c1cccs1 (stereo not given) | inactive: -4.77% | 
CC1Cc2cc(S(=O)(=O)N3CCN(c4ccccc4F)CC3)ccc2N1C(=O)C1CCC1 (stereo not given) | -36.8% | 
